Some of the results follow. Repeats are few or missing, and single values can be far off.
Tested on: MEL-HO
Assay: cell count relative to DMSO control; melanoma cells; higher = more viable cells
Details: library dose: standard library concentration; 72 h
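Note: cells treated in 1,536-well plates, then fixed and DAPI-stained, with nuclei counted from automated high-throughput microscope images.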

Row | Compound | cell count
1 | CN1CCN(c2ccc3nc(-c4c(N)c5c(F)cccc5[nH]c4=O)[nH]c3c2)CC1 [Dovitinib] + COc1cc2ncnc(Nc3ccc(Oc4ccccc4)cc3)c2cc1OC [SrcI1] (first compound 0.5 µM, partner dose 10 µM) | 76.7%
2 | CNC(=O)c1cc(Oc2ccc(NC(=O)Nc3ccc(Cl)c(C(F)(F)F)c3)cc2)ccn1 [sorafenib] + COc1cc2ncnc(Nc3ccc(Oc4ccccc4)cc3)c2cc1OC [SrcI1] (first compound 2 µM, partner dose 10 µM) | 77.2%
3 | CS(=O)(=O)CCNCc1ccc(-c2ccc3ncnc(Nc4ccc(OCc5cccc(F)c5)c(Cl)c4)c3c2)o1 [lapatinib] + COc1ccc(COc2ccc(Cc3cnc(N)nc3N)cc2OC)cc1 [GW2580] (first compound 4 µM, partner dose 5 µM) | 66.5%
4 | CN1CCN(c2ccc3nc(-c4c(N)c5c(F)cccc5[nH]c4=O)[nH]c3c2)CC1 [Dovitinib] + COc1ccc(COc2ccc(Cc3cnc(N)nc3N)cc2OC)cc1 [GW2580] (first compound 0.5 µM, partner dose 5 µM) | 65.9%
5 | C[C@@H](Oc1cc(-c2cnn(C3CCNCC3)c2)cnc1N)c1c(Cl)ccc(F)c1Cl [Crizotinib] + c1cc(-c2cnn3cc(-c4ccc(OCCN5CCCCC5)cc4)cnc23)ccn1 [Dorsomorphin] (first compound 1 µM, partner dose 2 µM) | 80.2%
6 | C=CCNC1=C2C[C@@H](C)C[C@H](OC)[C@H](O)[C@@H](C)/C=C(\C)[C@H](OC(N)=O)[C@@H](OC)/C=C\C=C(/C)C(=O)NC(=CC1=O)C2=O [Tanespimycin] + Cc1cc([N+](=O)[O-])ccc1NS(=O)(=O)c1cc(Cl)ccc1Cl [FH535] (first compound 0.01 µM, partner dose 5 µM) | 52.8%
7 | C=CCNC1=C2C[C@@H](C)C[C@H](OC)[C@H](O)[C@@H](C)/C=C(\C)[C@H](OC(N)=O)[C@@H](OC)/C=C\C=C(/C)C(=O)NC(=CC1=O)C2=O [Tanespimycin] + C[C@]1(c2nc3c(C(N)=O)cccc3[nH]2)CCCN1 [Veliparib] (first compound 0.01 µM, partner dose 7 µM) | 91.6%
